In all, about 48,000 compounds went through this assay and about 550 (1.1%) were called active. Another 4% or so got no clear call; they are omitted. Cut-off read from the data, not from the text of the source: active = potency below about 15 µM; inconclusive = mostly about 16 µM to 33 µM; inactive = weaker than that. This is one part of the list.
Potency is the fitted concentration of half-maximal effect.

Chain of UniProt P04062 (P04062 whole entry, looked up): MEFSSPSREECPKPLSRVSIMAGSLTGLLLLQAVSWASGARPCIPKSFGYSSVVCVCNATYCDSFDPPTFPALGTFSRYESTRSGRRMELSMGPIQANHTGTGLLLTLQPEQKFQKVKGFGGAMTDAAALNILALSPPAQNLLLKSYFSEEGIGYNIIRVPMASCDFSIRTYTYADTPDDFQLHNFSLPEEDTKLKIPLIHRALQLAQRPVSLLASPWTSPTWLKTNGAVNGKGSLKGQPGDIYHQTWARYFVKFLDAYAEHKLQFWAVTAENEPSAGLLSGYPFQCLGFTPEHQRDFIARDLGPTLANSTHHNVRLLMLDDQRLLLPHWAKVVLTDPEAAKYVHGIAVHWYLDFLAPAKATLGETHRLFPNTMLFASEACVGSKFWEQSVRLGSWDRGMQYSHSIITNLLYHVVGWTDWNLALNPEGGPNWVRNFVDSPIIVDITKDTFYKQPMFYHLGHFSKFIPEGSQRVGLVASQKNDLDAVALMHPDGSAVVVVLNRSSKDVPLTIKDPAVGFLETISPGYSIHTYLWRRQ

For the assay, the target named is Lysosomal acid glucosylceramidase (Homo sapiens) (UniProt P04062). Nature of the assay: Glucocerebrosidase.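 Note: the screen sought inhibitors.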 The settings on record: purified enzyme, resorufin glucoside fluorescence (screen aimed at inhibitors), 20 min. An outline of the steps:
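Normal human glucocerebrosidase (0.2 nM final) was assayed with resorufin β-D-glucopyranoside (30 uM final) in 50mM citric acid/KH2PO4, 10mM sodium taurocholate, 0.01% tween-20, pH 5.9. Compounds were titrated; fluorescence (Ex 548, Em 600) read after 20 min at RT.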
Regarding `Cc1cc2ccccc2c(=O)n1CC(=O)N1CCN(c2cccc(Cl)c2)CC1`, the Potency is inactive: > 76.9 µM.
As for `O=C(Nc1ccon1)c1ccc(S(=O)(=O)N2CCCCCC2)cc1`, the figure is inactive: > 76.9 µM; as for `COc1ccc(N2CC(C(=O)Nc3ccccc3C(=O)NCc3ccco3)CC2=O)cc1` (configuration not stated), inactive: > 76.9 µM; as for `O=C(NCC1CCCO1)c1cccc(N2C(=O)C3C4C=CC(C4)C3C2=O)c1` (configuration not stated), inactive: > 76.9 µM.
Then `O=C(CSc1ncnc2c1oc1ccccc12)N1CCN(c2ccccc2)CC1`, with inactive: > 76.9 µM; and `Cc1ccc(C2NC(=O)NC(O)(C(F)(F)F)C2C(=O)c2cccs2)o1` (configuration not stated), with inactive: > 76.9 µM.
In the case of `Nc1cc(-c2nn[nH]n2)ccc1F`, the Potency was inactive: > 76.9 µM.
For the compound `COc1cccc(-c2nnc(SCC(=O)Nc3cc(C)ccc3OC)n2N)c1`, the Potency was inactive: > 76.9 µM.
With `COc1ccc(CCNC(=O)c2noc3c2CCCC3)cc1OC`, the Potency was inactive: > 76.9 µM.
Then `Cc1cccc(CSc2nnc(-c3ccccn3)n2N)c1`, with inactive: > 76.9 µM; and `O=C(COc1ccccc1Cl)N1CCCC1`, with inactive: > 76.9 µM.
Then `O=C(NCCN1CCN(c2ccccc2)CC1)c1cccn2c(=O)c3ccccc3nc12`, with inactive: > 76.9 µM; and `Cc1cc(C)c2nc(C(F)(F)F)nc(NCCCN3CCCC3=O)c2c1`, with inactive: > 76.9 µM; and `O=C1C=C(c2ccccc2)C(O)(c2ccccc2)C1` (configuration not stated), with inactive: > 76.9 µM.
Then `COc1ccc(Nc2nc(C)c3ccccc3n2)cc1`, with inactive: > 76.9 µM; and `O=C(CCCOc1ccccc1)N1CCN(c2ccccn2)CC1`, with inactive: > 76.9 µM; and `COc1ccc(N(C(=O)COc2ccccc2)C2C=CS(=O)(=O)C2)cc1` (configuration not stated), with inactive: > 76.9 µM.
In the case of `Cc1c(N=Cc2nc3ccccc3[nH]2)c(=O)n(-c2ccccc2)n1C`, the Potency is inactive: > 76.9 µM.
Then `CCOC(=O)C1CCN(Cc2nc(-c3ccc(OC)c(OC)c3)no2)CC1`, with inactive: > 76.9 µM; and `CN(C)c1nc(OCCNC(=O)COc2ccc(Cl)cc2Cl)nc(N2CCOCC2)n1`, with inactive: > 76.9 µM; and `Cc1cc(=O)n2nc(N3CCCC(C(=O)N4CCOCC4)C3)sc2n1` (configuration not stated), with inactive: > 76.9 µM.
As for `CCN(CC)C(=O)CN1C(=O)C2(OCC(C)(c3ccccc3)CO2)c2ccccc21` (configuration not stated), the figure is inactive: > 76.9 µM; as for `Cc1cccc(N2CCN(C(=O)c3ccc(N4CCCC4=O)cc3)CC2C)c1` (configuration not stated), inactive: > 76.9 µM; as for `CCOC(=O)c1c(C)[nH]c(C(=O)COC(=O)c2ccc(N3CCCC3=O)cc2)c1C`, inactive: > 76.9 µM.
Then `Cc1ccc(Cl)cc1N1CCN(C(=O)CN2C(=O)c3cccc4cccc2c34)CC1`, with inactive: > 76.9 µM; and `O=C(NCc1ccccc1)C1CCN(S(=O)(=O)N2CCCCCC2)CC1`, with inactive: > 76.9 µM.
For `CCCn1c(SCC(=O)Nc2cccc(C)n2)nnc1-c1ccco1`, the Potency was inactive: > 76.9 µM.
With `Cc1nnc(SCC(=O)NCCc2ccccc2)[nH]c1=O`, the Potency is inactive: > 76.9 µM.
As for `Cc1oc(-c2ccc(Cl)cc2)nc1CN1CCCC(C(=O)NCc2cccnc2)C1` (configuration not stated), the figure is inactive: > 76.9 µM; as for `COc1cc(NC(=O)c2cc(-c3ccco3)on2)c(OC)cc1Cl`, inactive: > 76.9 µM.
Turning to `COc1ccc(-n2c(COc3cccc(C)c3)nnc2SCC(=O)NCc2ccco2)cc1`, the Potency was inactive: > 76.9 µM.
As to `CC1=Nc2ccccc2NC(=O)C1Sc1nnc(C)s1` (configuration not stated), the Potency was inactive: > 76.9 µM.
Then `c1ccn2c(SCc3ccc4c(c3)OCO4)nnc2c1`, with inactive: > 76.9 µM; and `COc1ccccc1NC(=O)CC1C(=O)Nc2c1c(=O)n(C)c(=O)n2C` (configuration not stated), with inactive: > 76.9 µM.
Then `CCOC(=O)c1cc(-c2ccco2)nc2c1c(C)nn2CCC#N`, with inactive: > 76.9 µM; and `CC(C)CN1C(=O)NC(NC(=O)c2cccs2)(C(F)(F)F)C1=O` (configuration not stated), with inactive: > 76.9 µM.
With `O=C(c1ccco1)N1CCN(C(=O)C2CCCc3c2[nH]c2ccc(Cl)cc32)CC1` (configuration not stated), the Potency was inactive: > 76.9 µM.
Then `CCOC(=O)c1cc2sccc2n1CC(=O)OC(C)C`, with inactive: > 76.9 µM.
As for `Cc1cnc(-c2nnc(N(C)C(=O)c3ccncc3)s2)cn1`, the figure is inactive: > 76.9 µM.
Regarding `CCOC(=O)Cn1nc(-c2ccc(Cl)cc2)cc1N`, the Potency was inactive: > 76.9 µM.
As for `CCOC(=O)/C(C(C)=O)=C1\OC(=O)c2ccccc21`, the figure is inactive: > 76.9 µM; as for `CC(C)(C)c1cc(CNC2CS(=O)(=O)C[C@@H]2O)cc(C(C)(C)C)c1O` (some centres not stated), “inactive”; as for `O=C(C1CCN(c2nnnn2-c2ccccc2)CC1)N1CCN(c2ccccc2)CC1`, inactive: > 76.9 µM.
With `CN(C)S(=O)(=O)Nc1ccccc1C(N)=O`, the Potency was inactive: > 76.9 µM.
As for `CCOc1ccc2[nH]c(=O)c(C(c3nnnn3CCOC)N3CCOCC3)cc2c1` (configuration not stated), the figure is inactive: > 76.9 µM; as for `COc1ccccc1N1CCN(S(=O)(=O)c2c(C)ccc3nsnc23)CC1`, inactive: > 76.9 µM; as for `CN1CCC(N(C)CC(=O)Nc2cccc(Oc3ccccc3)c2)CC1`, inactive: > 76.9 µM.
Then `COc1ccc(C2C(C(=O)N3CCOCC3)CCC(=O)N2c2cc(OC)c(OC)c(OC)c2)cc1` (configuration not stated), with inactive: > 76.9 µM; and `CN(C)S(=O)(=O)N(CC(=O)Nc1ccccc1C(F)(F)F)c1ccccc1`, with inactive: > 76.9 µM; and `CNc1oc(-c2ccc(OCc3ccccc3)cc2)nc1C#N`, with inactive: > 76.9 µM.
As for `O=C(CSc1nc2ccccc2o1)c1cc2ccccc2oc1=O`, the figure is inactive: > 76.9 µM; as for `CCN(CC)CCN1C(=O)c2oc3ccccc3c(=O)c2C1c1ccc(F)cc1` (configuration not stated), inactive: > 76.9 µM; as for `CCOC(=O)c1[nH]c2ccccc2c1NC(=O)C1CCCCC1`, inactive: > 76.9 µM.
As for `CN(c1ccccc1C(=O)NCc1ccccn1)S(C)(=O)=O`, the Potency is inactive: > 76.9 µM.
As for `CCOc1ccccc1NC(=O)CSc1nnc2c(CC)c(C)nc(N)n12`, the figure is inactive: > 76.9 µM; as for `O=C(COC(=O)C1COc2ccccc2O1)Nc1ccc2c(c1)CCC2` (configuration not stated), inactive: > 76.9 µM; as for `O=S1(=O)C=C(Sc2nc3cc(Cl)ccc3o2)c2ccccc21`, “inactive”.

For the origin of these results see PubChem BioAssay AID360 (National Center for Advancing Translational Sciences (NCATS), 2006).
